# Reference: paper PMC4336329 (PLoS ONE, 2015)
# Among all 310,000 compounds or so, about 14,000 (4.5%) showed an effect of 50% or more. The effect is printed as a negative number. The list shows a part of the results.
# Biological target: human ether-à-go-go-related gene (hERG) potassium channel (human, UniProt Q12809)
# Assay: primary screen, population patch clamp on CHO cells stably expressing hERG
# 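Further: peak tail current of the secondary pulse compared with the same well before compound.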
# Sequence of human ether-à-go-go-related gene (hERG) potassium channel (Q12809 whole entry, looked up): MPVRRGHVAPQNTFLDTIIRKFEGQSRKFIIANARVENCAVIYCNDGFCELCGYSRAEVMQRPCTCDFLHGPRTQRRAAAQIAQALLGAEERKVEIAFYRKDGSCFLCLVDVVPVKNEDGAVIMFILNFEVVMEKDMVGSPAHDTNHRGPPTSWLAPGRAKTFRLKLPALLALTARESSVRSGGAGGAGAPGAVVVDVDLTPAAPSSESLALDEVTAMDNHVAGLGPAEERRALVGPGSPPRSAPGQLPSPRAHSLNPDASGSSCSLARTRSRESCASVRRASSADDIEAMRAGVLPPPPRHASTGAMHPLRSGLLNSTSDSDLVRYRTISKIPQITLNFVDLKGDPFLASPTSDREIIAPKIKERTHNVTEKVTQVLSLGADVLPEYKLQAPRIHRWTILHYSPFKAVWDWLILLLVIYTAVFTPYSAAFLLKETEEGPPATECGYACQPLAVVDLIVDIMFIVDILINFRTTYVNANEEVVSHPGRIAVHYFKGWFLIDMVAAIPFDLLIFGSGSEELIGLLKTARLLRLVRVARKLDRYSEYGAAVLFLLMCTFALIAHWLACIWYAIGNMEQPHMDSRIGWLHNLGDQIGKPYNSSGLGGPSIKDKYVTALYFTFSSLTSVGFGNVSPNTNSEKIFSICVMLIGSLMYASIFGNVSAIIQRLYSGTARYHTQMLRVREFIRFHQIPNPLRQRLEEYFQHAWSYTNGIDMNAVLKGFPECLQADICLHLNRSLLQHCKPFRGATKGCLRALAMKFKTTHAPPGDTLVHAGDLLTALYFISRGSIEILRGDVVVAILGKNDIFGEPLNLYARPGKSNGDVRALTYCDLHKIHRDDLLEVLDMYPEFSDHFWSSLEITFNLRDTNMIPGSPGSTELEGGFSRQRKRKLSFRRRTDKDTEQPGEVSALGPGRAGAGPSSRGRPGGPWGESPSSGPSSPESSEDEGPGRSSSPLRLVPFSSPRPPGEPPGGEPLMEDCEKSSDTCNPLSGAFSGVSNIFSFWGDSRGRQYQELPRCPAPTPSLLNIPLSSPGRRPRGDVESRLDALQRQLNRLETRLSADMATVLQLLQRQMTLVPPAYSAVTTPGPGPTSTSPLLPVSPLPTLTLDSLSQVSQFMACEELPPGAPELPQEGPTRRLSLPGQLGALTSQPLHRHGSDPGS
row,Structure (SMILES),"hERG current change (%, negative = inhibition) at 10uM"
1,CCN(Cc1ccccc1)C(=O)CSc1nc(C)cc(=O)[nH]1,4.05%
2,N#CCc1ccc(Oc2ncccn2)cc1,22%
3,COc1cccc2c1OC1(C)CC2NC(=O)N1Cc1ccccc1 (stereo not shown),3.63%
4,CC1(C)C(c2ccccn2)=[N+]([O-])C(C)(C)N1O,7.81%
5,CCOC(=O)C1CCN(S(=O)(=O)CCNC(=O)c2ccc3c(c2)OCO3)CC1,-3.05%
6,Cc1ccc(-c2csc(-c3ccncc3)n2)cc1,4.73%
7,COc1ccccc1N(CC(=O)NCc1ccc(F)cc1)C(=O)CCC(=O)Nc1nccs1,5.13%
8,CCOC(=O)N1CCN(C(=O)/C=C/c2ccc([N+](=O)[O-])cc2)CC1,-70.6%
9,C=CCn1c(SCc2csc(-c3ccc(C)cc3)n2)nnc1-c1ccccc1OC,-33%
10,COc1ccc(S(=O)(=O)NCC(=O)Nc2ccc(F)cc2)cc1,0.186%
11,COc1cc2[nH]c(=O)n(CCCC(=O)NC3CCCCC3)c(=O)c2cc1OC,9.66%
12,Cc1cc(C)nc(-n2nc(C)c3c(C(=O)O)cc(-c4cccc(Br)c4)nc32)n1,3.73%
13,Cc1nn(CC(=O)OCC(=O)NCCc2ccc(S(N)(=O)=O)cc2)c(C)c1[N+](=O)[O-],8.19%
14,COC(=O)c1ccc2c(c1)nc(C)n2CCO,8.38%
15,O=[N+]([O-])c1ccc(NCc2ccccc2)nc1,-20.9%
16,Cc1ccc(C(=O)CC(C(=O)O)n2cccn2)cc1 (stereo not shown),7.78%
17,COc1ccc(-c2nn(-c3ccccc3)cc2/C=C/C(=O)O)cc1[N+](=O)[O-],9.47%
18,O=C(Nc1ccc(N2CCOCC2)cc1)c1cc(F)c(F)cc1Cl,-6.76%
19,COc1ccccc1NC(=O)COC(=O)c1c[nH]c(=O)[nH]c1=O,17.4%
20,CCCCN(CC)CCNC(=O)c1cc2c(=O)n(C)c3ccccc3c2s1,-0.251%
21,COc1cccc(NC(=O)c2cn(C)c(=O)c3cc(OC)c(OC)cc23)c1,6.54%
22,CC(NC(=O)C1CCCC1)c1ccc(Br)cc1 (stereo not shown),6.19%

row,Structure (SMILES),"hERG current change (%, negative = inhibition) at 10uM"
1,Cc1[nH]c2ccc(C(C)C)cc2c1CC(=O)O,18.7%
2,COc1ccc(COCC(O)CN(Cc2ccco2)Cc2ccccc2O)cc1 (stereo not shown),-4.98%
3,NNC(=O)c1cc2nc(-c3cccs3)cc(C(F)(F)F)n2n1,-44.1%
4,CSc1ccc(NC(=O)CSc2nc3[nH]c(=O)cc(O)c3s2)cc1,11.7%
5,CCCN(C(=O)c1ccco1)c1nnc(-c2ccccc2C)s1,-18.7%
6,Cc1cc(Cl)ccc1OCC(=O)Nc1nc(-c2cccnc2)cs1,9.71%
7,CCc1nnc(NC(=O)CSc2nnc(Cc3ccccc3)n2Cc2ccccc2)s1,6.21%
8,O=C(CN(Cc1ccccc1)S(=O)(=O)c1ccc(Br)cc1)NCC1CCCO1 (stereo not shown),-77.2%
9,CC(=O)c1ccc(NC(=O)c2ccc(-n3cncn3)c([N+](=O)[O-])c2)cc1,7.49%
10,N#C/C(=C\c1ccc(-c2ccc(C(=O)O)cc2)o1)C(=O)NCC1CCCO1 (stereo not shown),0.936%
11,COC(=O)C1=C(N)Oc2cc(C)n(CCc3ccccc3)c(=O)c2C1c1cccnc1 (stereo not shown),-25.9%
12,CC1CCN(CCNC(=O)C2CCCN(c3ncnc4c3nc3n4CCCCC3)C2)CC1 (stereo not shown),12.5%
13,CCOc1ccc(/C=C(\C#N)C(=O)NC2CC2)c(OCC)c1,-9.71%
14,COc1ccc(C)cc1S(=O)(=O)Nc1cccc(-c2ccc(N3CCCCCC3)nn2)c1,15.8%
15,O=C(CCCSc1nnc(-c2cccs2)n1CC1CCCO1)c1ccccc1 (stereo not shown),-65.1%
16,O=C(NCCN1CCOCC1)C(=O)NCC1OCCN1S(=O)(=O)c1ccc(Br)cc1 (stereo not shown),3.46%
17,CCC(C)Nc1nc2c(c(=O)n(C)c(=O)n2C)n1Cc1ccc(Cl)cc1 (stereo not shown),-7.45%
18,CCCCn1nnc(NC(=O)COc2ccc(Cl)c(C)c2)n1,18.3%
19,COC(=O)c1ccc(Cn2c(C)cc(C)[n+]2C)o1.[I-],18%
20,CCCc1nnc(SCC(=O)N2CCOCC2)n1C,17.4%
21,O=C(OC(C(=O)NCC1CCCO1)c1ccccn1)c1cccs1 (stereo not shown),1.83%
22,CCN(CC)CCCN1C(=O)c2oc3ccccc3c(=O)c2C1c1cccnc1 (stereo not shown),11.6%

row,Structure (SMILES),"hERG current change (%, negative = inhibition) at 10uM"
1,COc1ccccc1N(CC(O)Cn1ccnc1C)S(=O)(=O)c1ccc(C)cc1.Cl (stereo not shown),-39.3%
2,O=C(NC1CCCC1)C(c1ccsc1)N(C(=O)Cc1cccs1)c1ccc(F)cc1 (stereo not shown),21.2%
3,COc1ccccc1N(CC(=O)NC1CCCCC1)C(=O)CCC(=O)Nc1nccs1,-2.17%
4,O=C(COC(=O)CNC(=O)c1ccc(Cl)cc1Cl)NC1CCCCC1,1.89%
5,O=C(c1ccc(F)cc1)N1CCN=C1c1ccccc1,7.57%
6,CCN(CC(=O)N1CCCCCC1)S(=O)(=O)c1ccc(Cl)cc1,-13.5%
7,COc1cccc(CN2CCNC(=O)C2CC(=O)NCCOc2cccnc2)c1 (stereo not shown),-8.14%
8,COCCCNC(=S)NNC(=S)Nc1cccc(Cl)c1,20.7%
9,COc1ccc(C/C(C)=N/NC(=O)c2ccc(Cl)cc2)cc1,5.78%
10,CCc1cc2c(=O)n(-c3ccc(Br)cc3)cnc2s1,7.06%
11,Fc1cccc(-c2cc3nc4c(c(NCc5ccco5)n3n2)CCCC4)c1,-33.2%
12,O=C(CN1CCCCC1)Nc1ccc(S(=O)(=O)N2CCOCC2)cc1,-12.5%
13,Cc1nc2ccc(NC(=O)c3cccnc3)cc2s1.O=C(O)C(=O)O,1.03%
14,COc1cccc(NC(=O)CN(C)C(=O)CC2Sc3ccccc3NC2=O)c1 (stereo not shown),-36%
15,COc1ccccc1CNS(=O)(=O)c1c(C)nc2scc(C)n2c1=O,-8.78%
16,CC1(C)O[C@H]2CC(=O)OCC23[C@H]2CC[C@@]4(C)[C@H](c5ccoc5)OC(=O)[C@H]5O[C@]54[C@]2(C)C(=O)C[C@@H]13 (stereo partly shown),-2.63%
17,Cc1cccc(NC(=O)CN2C(=O)C(C)Oc3ccccc32)n1 (stereo not shown),7.32%
18,NC(=O)c1cc2cc(Br)ccc2oc1=NCc1ccccc1,10.4%
19,O=C1CN(C(=O)CNCc2ccccc2)c2ccccc2N1,1.93%
20,CCCCN(C(=O)C(C)Oc1ccc(Cl)cc1)c1c(N)n(CCCC)c(=O)[nH]c1=O (stereo not shown),-17.1%
21,O=C(Nc1ccncc1)Nc1ccc(Cl)cc1,-6.33%
22,CCc1nnc(NC(=O)CSc2nc(-c3ccccc3)cc(-c3ccc(F)cc3)c2C#N)s1,8.43%

row,Structure (SMILES),"hERG current change (%, negative = inhibition) at 10uM"
1,CCC(=O)NC(=S)Nc1ccc(NC(=O)c2ccco2)c(OC)c1,-7.8%
2,C=CCn1c(N2CCCCCC2)nc2c1c(=O)[nH]c(=O)n2C,5.65%
3,CC(=O)C1=C(O)C(=O)N(c2ccc(C)cc2)C1c1ccccn1 (stereo not shown),25.5%
4,Cc1cccc(NCc2ccccc2O)n1,6.89%
5,CCC(C)c1ccc2oc(-c3ccc(NC(=O)c4ncn[nH]4)cc3)nc2c1 (stereo not shown),-1.89%
6,COc1cccc(S(=O)(=O)NCc2ccc(C(=O)NCc3ccco3)cc2)c1,-11.8%
7,Cc1ccc(C(=O)Oc2ccc(C(=O)COC(=O)C3CC(=O)N(Cc4ccco4)C3)cc2)cc1 (stereo not shown),-14.4%
8,O=C(CN1CCN(C(=O)c2cccc(S(=O)(=O)N3CCCC3)c2)CC1)Nc1ccccc1Cl,-66.8%
9,Cc1ccc(C)c(N(CC(=O)Nc2cc(Cl)ccc2Oc2ccccc2)S(C)(=O)=O)c1,2.6%
10,C=CCN1C(=O)CN=C1NCc1ccccc1.Cl,8.01%
11,COc1ccccc1C(=O)OCC(=O)Nc1ccccc1OC(F)F,-19%
12,O=C(CCC(=O)N/N=C/c1ccc(Br)o1)N/N=C/c1ccc(Br)o1,-2.69%
13,COc1ccc(NC(=O)Cc2nnc(SCC(=O)NC3CCCCC3C)n2C)cc1 (stereo not shown),7.28%
14,COc1cc(/C=N\N=C2/SC(CC(=O)O)C(=O)N2c2ccc(O)cc2)ccc1O (stereo not shown),18.6%
15,COc1cc(C2C(C(=O)c3ccc(C)o3)=C(O)C(=O)N2c2cc(C)on2)ccc1OCc1ccccc1 (stereo not shown),-12.2%
16,O=C(CSC(=S)N1CCCCC1)N1N=CCC1c1ccccc1 (stereo not shown),-25.3%
17,CN(/C(=N\S(=O)(=O)c1ccccc1)C(F)(F)F)c1ccccc1,-3.25%
18,O=C(c1ccc(Cn2cc(Br)cn2)cc1)N1N=C(C(F)F)CC1(O)C(F)F (stereo not shown),5.3%
19,Cc1nnc(NC(=O)c2ccc(S(=O)(=O)C(F)F)cc2)s1,-6.86%
20,O=C(CN1C(=O)C2(OCCCO2)c2ccccc21)NCCc1ccccc1,-0.278%
21,O=C(NCc1ccco1)NCC(F)(F)F,11.6%
22,O=C(CCc1ccccc1)Nc1nc2ccc(S(=O)(=O)N3CCOCC3)cc2s1,18.5%
